Here are results for 64 molecules from ChEMBL document CHEMBL1156829.

The full ranking holds about 5,400 compounds; the median of “IFI” is about 2, and the highest 2% start at about 22. This is one part of the list.

A short description of this assay: NOVARTIS: Inhibition Frequency Index (IFI) - the number of HTS assays where a compound showed > 50% inhibition/induction, expressed as a percentage of the number of assays in which the compound was tested. The format is functional.
Molecule `CCOC(=O)c1cnc(SCC(=O)Nc2cc(C)ccc2C)nc1N` had an IFI of 0%.

Consider `Cc1csc(NC(=O)C2c3ccccc3C(=O)N(CC(C)C)C2c2cccs2)n1` (centres undefined), for which the IFI is 3.03%.

As to `CCC(C(=O)N1CCN(Cc2ccccc2)CC1)c1ccccc1` (centres undefined), the IFI amounted to 1.61%.

As for `CCOC(=O)CCC(=O)N(C)CCCNc1ccnc2cc(Cl)ccc12`, the IFI came to 2.75%.

As to `Fc1ccc(CSc2ccc3nnc(-c4cccnc4)n3n2)cc1`, the IFI was determined as 0%.

The molecule `CCN(CC)c1ccc(NC(=O)c2cccs2)cc1` returned an IFI of 7.09%.

For `c1ccc(C2=NN(c3ccccc3)C(c3ccc4c(c3)OCO4)N2c2ccc(N3CCOCC3)cc2)cc1` (centres undefined), the IFI is 23.1%.

Consider `CCOC(=O)C1CCN(C(=O)c2c(C)oc3c2C(=O)c2ccccc2C3=O)CC1`, for which the IFI came out at 7.69%.

Molecule `CC(=O)N(C1=C(N2CCOCC2)C(=O)c2ccccc2C1=O)c1cc(C)cc(C)c1` returned an IFI of 7.14%.

`O=C(Nc1ccc(-c2cnc(-c3ccc(NC(=O)c4cccc([N+](=O)[O-])c4)cc3)nc2)cc1)c1cccc([N+](=O)[O-])c1` displayed an IFI of 7.14%.

`CN1/C(=C/c2cccc[n+]2C)Sc2ccccc21` displayed an IFI of 15.4%.

`CCC(=O)N1CCOc2c(cc(-c3csc4ccccc34)cc2OCCc2ccccn2)C1`: the IFI stood at 0.826%.

Consider `CSc1ccc(NC(=O)N2CCCn3cccc3C2c2ccc(C(F)(F)F)cc2)cc1` (centres undefined), for which the IFI is 2.83%.

`CCOC(=O)C1=C(c2ccccc2)N=c2sc(=Cc3cc(C)n(-c4ccc(F)cc4)c3C)c(=O)n2C1c1cccc(OC)c1OC` (centres undefined) had an IFI of 2.41%.

`c1ccc2cc3c(NCCCN4CCOCC4)ccnc3cc2c1`: the IFI turned out to be 12.7%.

With `CCCN1CCC(N2C[C@@H](NCc3cc(C)ccc3C)C[C@H]2C(=O)NCCc2ccc3c(c2)OCO3)CC1`, the IFI was found to be 6.25%.

Take `CCOC(=O)c1c(N)n(-c2ccc(CC)cc2)c2nc3ccccc3nc12`: the IFI is 0%.

On to `O=C(C1CCCCN1)N1CC(c2ccccc2)c2ccccc2C1CN1CCCCC1` (centres undefined), for which the IFI stood at 8.57%.

For the molecule `Oc1cccc(-c2cncc(-c3cccnc3)n2)c1`, the IFI was found to be 7.69%.

Consider `N#Cc1ccc(-c2cnc(N)c(-c3ccc(C(N)=O)cc3)n2)cc1`, for which the IFI came out at 0%.

Take `CCN(CC)CCCNc1ccnc2cc3ccccc3cc12`: the IFI stood at 4.84%.

Regarding `FC(F)(F)c1cccc(NC(=S)N2CCCC2c2ccncc2)c1` (centres undefined), the IFI came to 1.79%.

The molecule `CCCOC(=O)C1=C(C)NC2=C(C(=O)CC(c3ccc(Cl)cc3)C2)C1c1ccccc1F` (centres undefined) yielded an IFI of 3.53%.

For the molecule `CCOC(=O)c1cnc2c(Cl)cccc2c1Nc1cccc(C(C)=O)c1`, the IFI stood at 3.28%.

On to `CC1CCCCN1CC(=O)N1CCN(C(=O)CN2CCCCC2C)CC1.CC=O` (centres undefined), for which the IFI was determined as 3.7%.

`COc1cc(NCc2cnc(N)nc2N)cc(OC)c1`: the IFI is 0.8%.

The molecule `Cc1ccc(Nc2nc(N)c3ccccc3n2)cc1Cl` yielded an IFI of 7.69%.

As for `C/C=C/[P+](c1ccccc1)(c1ccccc1)c1ccccc1`, the IFI amounted to 11.8%.

As for `CCCN1CCC(N2C[C@@H](NC3CCN(CCc4ccccc4)CC3)C[C@H]2C(=O)NCCc2ccc3c(c2)OCO3)CC1`, the IFI came out at 1.98%.

As for `CCc1ccc2c(c1)C1(NN=C(c3ccc(C)cc3)S1)C(=O)N2` (centres undefined), the IFI is 9.3%.

Regarding `CCNC(=O)NS(=O)(=O)c1cnccc1Sc1cccc(C)c1`, the IFI came to 0%.

Molecule `Oc1ccc(Nc2ccnc3cc(Cl)ccc23)cc1` registered an IFI of 1.32%.

In the case of `c1ccc(-c2nc(NCCCn3ccnc3)cc(-c3ccncc3)n2)cc1`, the IFI was 0%.

Regarding `Cn1cc([N+](=O)[O-])c(C(=O)NN=Cc2c[nH]c3ccccc23)n1`, the IFI was 6.77%.

Molecule `COc1ccc(/C=C/C(=O)Nc2ccc3nc(N4CCN(C)CC4)cc(C)c3c2)cc1OC` registered an IFI of 8.33%.

In turn, `CCN1/C(=C\C=C\c2n(CC)c3ccc(C#N)cc3[n+]2CC)Oc2ccc(-c3ccccc3)cc21` had an IFI of 10.5%.

Molecule `Cn1cnc2cc(OC3CCN(Cc4ccco4)CC3)ccc21` displayed an IFI of 2.78%.

On to `CCOC(=O)C1=C(C)NC2=C(C(=O)C(C(=O)OCC)C(c3ccccc3OC)C2)C1c1sccc1C` (centres undefined), for which the IFI worked out at 3.49%.

On to `CC(c1nc2ccccc2c(=O)n1C)N1CCN(C(=O)C(C)(C)C)CC1` (centres undefined), for which the IFI stood at 0%.

For the molecule `CCN1C=C(c2ccc(C)cc2)S/C1=C\c1sc2ccccc2[n+]1C`, the IFI was 14.7%.

Turning to `Cc1cccc(C)c1-n1c(SCc2cccc(F)c2)nc2c(sc(=S)n2-c2c(C)cccc2C)c1=O`, the IFI came to 0%.

For the molecule `CN(C)c1cccc(Nc2cc(-c3ccc(CC(N)C(=O)O)cc3)nc3ccnn23)c1` (centres undefined), the IFI was 1.1%.

In the case of `O=C(Cc1cccs1)NC1CCN(CC(O)CN(Cc2ccccc2)S(=O)(=O)c2ccccc2)C1` (centres undefined), the IFI was 1.92%.

The molecule `CCCc1cc(-c2onc(C)c2-c2ccc(C(=O)OCC)o2)c(O)cc1OC` returned an IFI of 3.51%.

Molecule `CC(OC(=O)c1ccccc1N1C(=O)C2C3C=CC(C4CC34)C2C1=O)C(=O)c1ccccc1` (centres undefined) gave an IFI of 0%.

Molecule `CCN1C(=O)N(CC)C(NNC(N)=S)C1NNC(N)=S` (centres undefined) displayed an IFI of 4.44%.

The molecule `CC(C)CCN(CCC(C)C)CC(O)Cn1c2ccc(Br)cc2c2cc(Br)ccc21` (centres undefined) returned an IFI of 5.5%.

`C=CCc1cc(-c2cc(CC=C)c(O)c(CN(CC)CC)c2)cc(CN(CC)CC)c1O` came in with an IFI of 2.35%.

Regarding `O=C(C(Cc1c[nH]c2ccccc12)NS(=O)(=O)c1ccc(Cl)cc1)N1CCCCC1` (centres undefined), the IFI came out at 0%.

Take `N#Cc1sccc1NS(=O)(=O)c1ccc(Cl)cc1`: the IFI was found to be 0.848%.

Consider `CCc1c(C)c(C#N)c2nc3ccccc3n2c1Nc1ccc(C)c(Cl)c1`, for which the IFI is 0%.

With `O=C(NC(CN1CCCC1)c1ccccc1)C1CCN(S(=O)(=O)c2ccc(Cl)cc2)CC1` (centres undefined), the IFI was 1.94%.

For the molecule `O=C(NCCCCNc1ccnc2cc(Cl)ccc12)C1CCCC1`, the IFI amounted to 0.917%.

`COCCCNC(=O)/C=C/c1ccc(C(C)C)cc1` showed an IFI of 0%.

`COc1ccc(C2CC(=O)C3=C(C2)NC(C)=C(C(=O)OC2CCCC2)C3c2ccc(Cl)cc2)cc1` (centres undefined) came in with an IFI of 4.71%.

Molecule `O=C(CC1OC(=O)c2ccccc21)c1ccc(Cl)cc1` (centres undefined) gave an IFI of 5.33%.

Consider `O=C(C1CC1)N1CCOc2c(cc(-c3csc4ccccc34)cc2OCCc2ccccn2)C1`, for which the IFI worked out at 0.952%.

In the case of `COc1cc(CNCCCn2ccnc2)ccc1OCc1ccccc1`, the IFI is 0.935%.

With `CCC(C)NC(=O)c1c[nH]c2ccc(S(=O)(=O)N(C)c3cc(C)ccc3C)cc2c1=O` (centres undefined), the IFI was found to be 7.69%.

Regarding `CCCCCCCC[n+]1c(C)n(CC)c2ccc(Cl)cc21`, the IFI worked out at 7.69%.

`Oc1ccccc1CNC(Cc1ccccc1)C(O)(c1ccccc1)c1ccccc1` (centres undefined): the IFI came out at 0%.

Take `Cc1cnc(CNc2cc(-c3ccccn3)nc(-c3ccccn3)n2)nc1`: the IFI turned out to be 11.8%.

Turning to `COc1ccc(C[n+]2cc(-c3ccc(Cl)cc3)n3ccccc32)cc1`, the IFI came out at 2.22%.

`CCCNC(=O)c1ccc(OC2CCN(CC3CCCCC3)CC2)c(Cl)c1` returned an IFI of 4.17%.
